Some of the results follow. At the low end of the ranking, values are background and their order means little.

The assay concerns the target GST-SBP-SLBP (stem-loop binding protein) (UniProt Q14493). The assay is described as follows: targeted RNA Bind-n-Seq.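 Further: DESeq read counts versus GST-SBP nonspecific binding control pulldown.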 Conditions: RBNS binding buffer: 25 mM Tris pH 7.5, 150 mM KCl, 3 mM MgCl2, 0.1% Tween, 0.5 mg/mL BSA, 1 mM DTT; 27 nM protein, 750 pM RNA pool; temperature not stated; high values mean tight binding.
Consider “GGUCACGUCUCAAUCAACUCAUUUUCAGGAGUUUUCUCCUGUUUUUUCAACAGCUCGCAGUCAAG”, for which the binding signal (log2 fold change) is -0.129.

Turning to “GGUCACGUCUCAAUCAACUCUUCUCCAGGAGUUUCCUCCUGUAAACUCAACAGCUCGCAGUCAAG”, the binding signal (log2 fold change) is -0.023.

On to “GGUCACGUCUCAAUCAACUCUAUCUCAGGAGUUUUCUCCUGCUUUUUCAACAGCUCGCAGUCAAG”, for which the binding signal (log2 fold change) came out at 0.0297.

On to “GGUCACGUCUCAAUCAACUCAAUCUCAGGAGUUUACUCCUGCUUAGUCAACAGCUCGCAGUCAAG”, for which the binding signal (log2 fold change) was found to be 0.223.

Consider “GGUCACGUCUCAAUCAACUCUAAGGAGGGGGGGAAAACCCCUUUACCCUCAUUCUCAACAGCUCGCAGUCAAG”, for which the binding signal (log2 fold change) was 0.0292.

“GGUCACGUCUCAAUCAACUCUUUCUCAGGAGUUUUCUCCUGUAUUCUCAACAGCUCGCAGUCAAG”: the binding signal (log2 fold change) is -0.0753.

In the case of “GGUCACGUCUCAAUCAACUCUUAAGAGGGGGGGAAAACCCCUUUGCCCUCGUUUUCAACAGCUCGCAGUCAAG”, the binding signal (log2 fold change) is -0.212.

In the case of “GGUCACGUCUCAAUCAACUCUAUUCCCAGGGAAAGCCCUGGCUAUUUCAACAGCUCGCAGUCAAG”, the binding signal (log2 fold change) was -0.198.

With “GGUCACGUCUCAAUCAACUCAUUCUCAGGAGUUUUCUCCUGCUUUCUCAACAGCUCGCAGUCAAG”, the binding signal (log2 fold change) came out at 0.062.

As to “GGUCACGUCUCAAUCAACUCUAUUUCAGGAGUUUUCUCCUGCUAUGUCAACAGCUCGCAGUCAAG”, the binding signal (log2 fold change) turned out to be 0.0991.

Turning to “GGUCACGUCUCAAUCAACUCUAUUUCCAGGGAAAUCCCUGGUUAAUUCAACAGCUCGCAGUCAAG”, the binding signal (log2 fold change) was 0.168.

For “GGUCACGUCUCAAUCAACUCUUUUUCAGGAGUUUACUCCUGCAUACUCAACAGCUCGCAGUCAAG”, the binding signal (log2 fold change) is 0.126.

“GGUCACGUCUCAAUCAACUCUAUUCCCAGGGAAAUCCCUGGCUUAUUCAACAGCUCGCAGUCAAG”: the binding signal (log2 fold change) is -0.0659.

Consider “GGUCACGUCUCAAUCAACUCAAUUUCCAGGGAAAGCCCUGGCGUUUUCAACAGCUCGCAGUCAAG”, for which the binding signal (log2 fold change) was determined as 0.0261.

On to “GGUCACGUCUCAAUCAACUCGUCUUCAGGAGUUUUCUCCUGCAAAUUCAACAGCUCGCAGUCAAG”, for which the binding signal (log2 fold change) amounted to 0.149.

Consider “GGUCACGUCUCAAUCAACUCUAUCUCCAGGGAAAUCCCUGGUAUACUCAACAGCUCGCAGUCAAG”, for which the binding signal (log2 fold change) came out at 0.0925.

As for “GGUCACGUCUCAAUCAACUCAUCUCCAGGAGUUUUCUCCUGCUUUGUCAACAGCUCGCAGUCAAG”, the binding signal (log2 fold change) was found to be 0.064.

Consider “GGUCACGUCUCAAUCAACUCAUCCCCCAGGGAAAUCCCUGGUAAAUUCAACAGCUCGCAGUCAAG”, for which the binding signal (log2 fold change) is -0.237.

As for “GGUCACGUCUCAAUCAACUCUUCUUCCAGGGAAAGCCCUGGUUAACUCAACAGCUCGCAGUCAAG”, the binding signal (log2 fold change) was 0.056.

Regarding “GGUCACGUCUCAAUCAACUCAUCCCCAGGAGUUUUCUCCUGCAAAUUCAACAGCUCGCAGUCAAG”, the binding signal (log2 fold change) is -0.0112.

Regarding “GGUCACGUCUCAAUCAACUCAAUUCCAGGAGUUUUCUCCUGCAUUCUCAACAGCUCGCAGUCAAG”, the binding signal (log2 fold change) is -0.135.

With “GGUCACGUCUCAAUCAACUCAUUUCCCAGGGAAAUCCCUGGUUUAUUCAACAGCUCGCAGUCAAG”, the binding signal (log2 fold change) was -0.107.

Regarding “GGUCACGUCUCAAUCAACUCUAUCUCAGGAGUUUGCUCCUGCAUUUUCAACAGCUCGCAGUCAAG”, the binding signal (log2 fold change) came out at 0.196.

“GGUCACGUCUCAAUCAACUCUUCGUCCAGGGAAAGCCCUGGUAAUUUCAACAGCUCGCAGUCAAG”: the binding signal (log2 fold change) was -0.213.

For the sequence “GGUCACGUCUCAAUCAACUCAUCCUCAGGAGUUUUCUCCUGCUAACUCAACAGCUCGCAGUCAAG”, the binding signal (log2 fold change) was found to be 0.156.

Turning to “GGUCACGUCUCAAUCAACUCAACUCCAGGAGUUUACUCCUGUAAUGUCAACAGCUCGCAGUCAAG”, the binding signal (log2 fold change) was -0.11.

On to “GGUCACGUCUCAAUCAACUCUCAAGAGGGGGGGAAAACCCCUUUGCCCUCAAUGUCAACAGCUCGCAGUCAAG”, for which the binding signal (log2 fold change) amounted to 0.177.

For the sequence “GGUCACGUCUCAAUCAACUCUUUUCCCAGGGAAAGCCCUGGUUUUCUCAACAGCUCGCAGUCAAG”, the binding signal (log2 fold change) amounted to 0.037.

In the case of “GGUCACGUCUCAAUCAACUCCACGGAGGGGGGGAAAACCCCUUUACCCUCAAAUUCAACAGCUCGCAGUCAAG”, the binding signal (log2 fold change) was found to be 0.543.

For the sequence “GGUCACGUCUCAAUCAACUCAAUCCCAGGAGUUUUCUCCUGCUAUUUCAACAGCUCGCAGUCAAG”, the binding signal (log2 fold change) turned out to be 0.141.

Regarding “GGUCACGUCUCAAUCAACUCAUUAGAGGGGGGGAAAACCCCUUUACCCUCACAAUCAACAGCUCGCAGUCAAG”, the binding signal (log2 fold change) was -0.00194.

Consider “GGUCACGUCUCAAUCAACUCAUUCCCCAGGGAAAUCCCUGGCUAUUUCAACAGCUCGCAGUCAAG”, for which the binding signal (log2 fold change) is -0.0263.

“GGUCACGUCUCAAUCAACUCAAUCUCCAGGGAAAACCCUGGUUAACUCAACAGCUCGCAGUCAAG”: the binding signal (log2 fold change) stood at 0.0368.

On to “GGUCACGUCUCAAUCAACUCUUCCCCAGGAGUUUUCUCCUGCUUUCUCAACAGCUCGCAGUCAAG”, for which the binding signal (log2 fold change) is 0.05.

Turning to “GGUCACGUCUCAAUCAACUCUAGUCCCAGGGAAACCCCUGGUUUUUUCAACAGCUCGCAGUCAAG”, the binding signal (log2 fold change) turned out to be 0.0995.

“GGUCACGUCUCAAUCAACUCAACUCCCAGGGAAAGCCCUGGUUUACUCAACAGCUCGCAGUCAAG”: the binding signal (log2 fold change) stood at 0.136.

“GGUCACGUCUCAAUCAACUCCCUCGAGGGGGGGAAAACCCCUUUACCCUCUAAUUCAACAGCUCGCAGUCAAG”: the binding signal (log2 fold change) was -0.5.

Consider “GGUCACGUCUCAAUCAACUCAAGUCCAGGAGUUUCCUCCUGCAUAUUCAACAGCUCGCAGUCAAG”, for which the binding signal (log2 fold change) came out at 0.199.

For the sequence “GGUCACGUCUCAAUCAACUCUACGCCAGGAGUUUUCUCCUGCUAUUUCAACAGCUCGCAGUCAAG”, the binding signal (log2 fold change) is -0.191.

Take “GGUCACGUCUCAAUCAACUCAACGGAGGGGGGGAAAACCCCUUUACCCUCAUCAUCAACAGCUCGCAGUCAAG”: the binding signal (log2 fold change) was -0.36.

On to “GGUCACGUCUCAAUCAACUCAUCGUCAGGAGUUUACUCCUGUUAUUUCAACAGCUCGCAGUCAAG”, for which the binding signal (log2 fold change) was determined as 0.0407.

Regarding “GGUCACGUCUCAAUCAACUCAUUUUCCAGGGAAACCCCUGGCAUAUUCAACAGCUCGCAGUCAAG”, the binding signal (log2 fold change) was -0.104.

Take “GGUCACGUCUCAAUCAACUCAGUCUCAGGAGUUUGCUCCUGCAUUUUCAACAGCUCGCAGUCAAG”: the binding signal (log2 fold change) is -0.19.

With “GGUCACGUCUCAAUCAACUCAACUUCAGGAGUUUCCUCCUGUAAAUUCAACAGCUCGCAGUCAAG”, the binding signal (log2 fold change) was found to be 0.0785.

Regarding “GGUCACGUCUCAAUCAACUCAUCUCCCAGGGAAACCCCUGGUUUUCUCAACAGCUCGCAGUCAAG”, the binding signal (log2 fold change) was -0.0846.

As to “GGUCACGUCUCAAUCAACUCCCUAGAGGGGGGGAAAACCCCUUUACCCUCACAUUCAACAGCUCGCAGUCAAG”, the binding signal (log2 fold change) is -0.201.

Turning to “GGUCACGUCUCAAUCAACUCAGUCUCCAGGGAAAACCCUGGUUUAUUCAACAGCUCGCAGUCAAG”, the binding signal (log2 fold change) turned out to be 0.0693.

For the sequence “GGUCACGUCUCAAUCAACUCUCAGGAGGGGGGGAAAACCCCUUUACCCUCACAUUCAACAGCUCGCAGUCAAG”, the binding signal (log2 fold change) worked out at 0.0989.

Source of the values: article PMC5892938.
